# Assay results reported in PubChem BioAssay AID360 (National Center for Advancing Translational Sciences (NCATS), 2006).
# Screen size: about 48,000 compounds; about 550 (1.1%) were called active. Roughly 4% stayed inconclusive and do not appear here. No stated cut-off is given here; in the data, active means potency below about 15 µM; inconclusive means mostly about 16 µM to 33 µM; inactive means weaker than that. The list shows a part of the results.
# Molecular target: Lysosomal acid glucosylceramidase (Homo sapiens) (UniProt P04062)
# Test: Glucocerebrosidase;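 further: the screen sought inhibitors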
# Conditions: purified enzyme, resorufin glucoside fluorescence (screen aimed at inhibitors), 20 min
# Method in brief: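 Compounds titrated against 0.2 nM normal enzyme, 30 uM resorufin beta-D-glucopyranoside substrate, citrate/phosphate buffer with taurocholate and tween-20, pH 5.9. Reaction ran 20 min at room temperature; fluorescence (Ex 548/Em 600) gave AC50.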
# Potency means the concentration at half of the fitted maximal effect.
# Chain of UniProt P04062 (P04062 whole entry, looked up): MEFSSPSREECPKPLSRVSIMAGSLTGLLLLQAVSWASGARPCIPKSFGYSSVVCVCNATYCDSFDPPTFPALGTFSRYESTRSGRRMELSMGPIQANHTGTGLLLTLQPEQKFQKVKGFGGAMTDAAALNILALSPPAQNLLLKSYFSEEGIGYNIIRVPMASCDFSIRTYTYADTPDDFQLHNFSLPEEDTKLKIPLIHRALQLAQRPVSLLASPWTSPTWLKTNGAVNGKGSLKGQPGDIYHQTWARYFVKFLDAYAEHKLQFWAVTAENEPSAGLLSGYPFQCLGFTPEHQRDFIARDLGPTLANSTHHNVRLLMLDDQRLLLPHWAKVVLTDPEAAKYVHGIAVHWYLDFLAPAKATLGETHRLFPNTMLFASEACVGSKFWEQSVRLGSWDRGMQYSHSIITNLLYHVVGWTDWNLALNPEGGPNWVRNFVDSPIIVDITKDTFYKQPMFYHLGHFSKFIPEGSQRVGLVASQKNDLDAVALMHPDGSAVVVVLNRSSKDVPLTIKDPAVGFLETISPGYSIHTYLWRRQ
row,SMILES,Potency
1,CCOC(=O)N1CCN(C(=O)CSc2nc3ccccc3c(=O)n2-c2ccccc2)CC1,inactive: > 76.9 µM
2,CCOC(=O)C(C)On1c(SC(C)C(=O)OCC)nc2ccccc2c1=O (centres undefined),inactive: > 76.9 µM
3,Cc1ccc(CN2C(=O)CCC2C(=O)NCCCN2CCCCC2C)cc1 (centres undefined),inactive: > 76.9 µM
4,Cc1nc(N2CCCC2C(=O)O)c2oc3ccccc3c2n1 (centres undefined),inactive: > 76.9 µM
5,O=C(CCn1nnc2ccccc21)N1CCC(O)(c2cccc(F)c2)CC1,inactive: > 76.9 µM
6,O=C(CCN1C(=O)C2C3C=CC(C3)C2C1=O)NCCN1CCCc2ccccc21 (centres undefined),inactive: > 76.9 µM
7,C=CCNC(=O)C1CC(c2cccc(OC)c2)=NO1 (centres undefined),inactive: > 76.9 µM
8,Cc1ccc2c(c1)N(Cc1ccccn1)C(=O)C(C)O2 (centres undefined),inactive: > 76.9 µM
9,O=C1Nc2ccccc2N=C(c2ccccc2)C1N1CCOCC1 (centres undefined),inactive: > 76.9 µM
10,COc1cccc(C(O)CC(N)=O)c1 (centres undefined),inactive: > 76.9 µM
11,COCC(=O)OCn1nnc2ccccc2c1=O,inactive: > 76.9 µM
12,CC(=O)c1c(C)[nH]c(C(=O)OCn2nnc3ccccc3c2=O)c1C,inactive: > 76.9 µM
13,O=C(CSc1nnnn1C1CCCCC1)NCc1ccco1,inactive: > 76.9 µM
14,CC(CCc1ccccc1)NC(=O)CSc1nnnn1C (centres undefined),inactive: > 76.9 µM
15,CC1CCC(NC(=O)C2c3ccccc3C(=O)N2CCCN2CCOCC2)CC1 (centres undefined),inactive: > 76.9 µM
16,O=S(=O)(Nc1ccc(-c2nc3ccccc3o2)cc1)c1ccccc1,inactive: > 76.9 µM
17,CCCn1cc(NC(=O)C2CC(c3cccc(Br)c3)=NO2)cn1 (centres undefined),inactive: > 76.9 µM
18,O=C(O)CCc1ccc(-c2cccs2)n1CCC(=O)O,inactive: > 76.9 µM
19,CC(C)(C)C(=O)CNS(=O)(=O)c1ccc(S(=O)(=O)NC2CCCC2)cc1,inactive: > 76.9 µM
20,O=C(NCCC1=CCCCC1)C1CCN(S(=O)(=O)c2cccc3nonc23)CC1,inactive: > 76.9 µM
21,COc1ccccc1Nc1ncc(C(C)=O)c(C)n1,inactive: > 76.9 µM
22,COc1cccc(-n2c(SCC(=O)Nc3cc(C)on3)nc3ccccc3c2=O)c1,inactive: > 76.9 µM
23,Cc1nc(CSc2nnc(C)s2)cs1,inactive: > 76.9 µM
24,CC(C)[C@H](NC(=O)Nc1cccc(C(F)(F)F)c1)C(=O)O,inactive: > 76.9 µM

row,SMILES,Potency
1,O=C(CSc1nc(-c2ccccc2)cc(=O)[nH]1)N1CCc2ccccc21,inactive: > 76.9 µM
2,Cc1ccc(N2C(=O)C3C4C=CC(C4)C3C2=O)cc1 (centres undefined),inactive: > 76.9 µM
3,CCN1C(=O)/C(=C2\SC(=S)N(CCCOC)C2=O)c2ccccc21,inactive: > 76.9 µM
4,CS(=O)(=O)N1CCC(C(=O)Nc2ccccc2F)CC1,inactive: > 76.9 µM
5,Cc1c(Cl)cccc1NC(=O)NC1CCCCC1,inactive: > 76.9 µM
6,CCCn1c(NCc2cccc(OC)c2OC)nc2ccccc21,inactive: > 15.4 µM
7,CN(C)c1ccc(P(=O)(OCc2ccccc2)C(O)c2cccnc2)cc1 (centres undefined),inactive: > 76.9 µM
8,O=S(=O)(c1cccs1)n1cccn1,inactive: > 76.9 µM
9,O=C1CCCC2=C1C(Cc1ccccc1)C1=C(CCCC1=O)O2,inactive: > 76.9 µM
10,O=C(CSc1ncnc2c1oc1ccccc12)N1CCCc2ccccc21,inactive: > 76.9 µM
11,CCN1CCN(CCNC(=O)c2cn(Cc3ccccc3F)nn2)CC1,inactive: > 76.9 µM
12,CC(=O)Nc1cccc(Oc2ccc(-c3noc(C)n3)cc2)c1,inactive: > 76.9 µM
13,O=C1CCCC2=C1C(c1cccs1)n1nc(SCc3ccccc3F)nc1N2 (centres undefined),inactive: > 76.9 µM
14,Cc1cc(NC(=O)COc2ccc(Cl)cc2Cl)n(CCC#N)n1,inactive: > 76.9 µM
15,CC(C)(C)c1nnc2sc(SCCN3C(=O)c4ccccc4C3=O)nn2c1=O,inactive: > 76.9 µM
16,CCCc1nc(SCC(=O)N2CCCC2)c2ccccc2n1,inactive: > 76.9 µM
17,O=C(CCn1nnc(-c2cccs2)n1)NCc1ccccc1Cl,inactive: > 76.9 µM
18,COc1ccc(-c2nn(C)c(=O)c3ccccc23)cc1CNC(=O)CN1CCOCC1,inactive: > 76.9 µM
19,c1cncc(-c2nnc(-c3ccco3)o2)c1,inactive: > 76.9 µM
20,CCCc1nnc2n1N=C(c1ccc(OC)c(OC)c1)CS2,inactive: > 76.9 µM
21,CCCC(c1nnnn1Cc1ccccc1)N1CCC(C(N)=O)CC1 (centres undefined),inactive: > 76.9 µM
22,N#Cc1nc(Cc2ccccc2)oc1NCCCn1ccnc1,inactive
23,CC(C)CCn1c(Sc2nc3ccccc3s2)nc2c1c(=O)[nH]c(=O)n2C,inactive: > 76.9 µM
24,Cc1cccc(-c2noc(CN(C(=O)c3ccc(Br)o3)C(C)C)n2)c1,inactive: > 76.9 µM

row,SMILES,Potency
1,CCOc1cc(C2C3=C(CCCC3=O)NC3=C2C(=O)CCC3)ccc1OCCO,inactive: > 76.9 µM
2,O=C(Cn1nc(C(=O)O)c2ccccc2c1=O)NCCC1=CCCCC1,inactive: > 76.9 µM
3,CC(=O)c1ccc(NC(=O)C(C)Sc2nnnn2C)cc1 (centres undefined),inactive: > 76.9 µM
4,Nc1nc2n(n1)C(c1ccco1)CC(c1ccc(Cl)c(Cl)c1)N2 (centres undefined),inactive: > 76.9 µM
5,Cc1nc(N2CCN(C(c3ccccc3)c3ccccc3)CC2)nc2c1C(=O)CCC2,inactive: > 76.9 µM
6,Cc1ccc(C)c(N2CCN(C(=O)C3CCN(S(=O)(=O)c4c(C)noc4C)CC3)CC2)c1,inactive: > 76.9 µM
7,CC1CCCC(C)N1C(=O)CN1CCN(c2nc(-c3ccc(F)cc3)cs2)CC1 (centres undefined),inactive: > 76.9 µM
8,Nc1n[nH]c2c1C1(CCCCC1)Cc1ccccc1-2,inactive: > 76.9 µM
9,C=CCn1c(SCc2ccc3nonc3c2)nnc1-c1cccs1,inactive: > 76.9 µM
10,NC(=O)c1oc2ccccc2c1NC(=O)CN1CCCCC1,inactive: > 76.9 µM
11,CCOC(=O)c1oc2ccccc2c1NC(=O)c1ccc(S(=O)(=O)N2CCCC2)cc1,inactive: > 76.9 µM
12,CCCCOc1ccc(C(=O)N2CCC(C)CC2)cc1,inactive: > 76.9 µM
13,O=C(OCc1c(Cl)cccc1Cl)c1cnccn1,inactive: > 76.9 µM
14,COc1ccccc1Nc1nc(N)nc(CN2CCc3ccccc3C2)n1,inactive
15,CCCCN(C)CCn1c(=S)[nH]c2ccc(N3CCOCC3)cc2c1=O,inactive: > 76.9 µM
16,O=C(NCc1ccco1)c1cccc2c1C(=O)N(C1CCCCC1)C2,inactive: > 76.9 µM
17,COCc1nnc(NC(=O)c2sc3ccccc3c2Cl)s1,inactive: > 76.9 µM
18,O=C(Nc1ccc2c(c1)OCO2)Nc1ccc(Br)cn1,inactive: > 76.9 µM
19,NC(=O)CSc1nc2ccccc2n1Cc1ccccc1F,inactive: > 76.9 µM
20,C=CCN=C(NC#N)SCC(=O)NC(C)(C)C,inactive: > 76.9 µM
21,Cn1nnc(-c2ccc(OCc3ccccc3F)cc2)n1,inactive: > 76.9 µM
22,Cc1cc(C(=O)Nc2sc3c(c2C#N)CCC(C)C3)no1 (centres undefined),inactive: > 76.9 µM
23,CC(=O)N1C(=O)N(C)C2C1N(C(C)=O)C(=O)N2C (centres undefined),inactive: > 76.9 µM
24,O=C(C1CCCN1S(=O)(=O)c1ccc(Cl)cc1)N1CCOCC1 (centres undefined),inactive: > 76.9 µM

row,SMILES,Potency
1,COc1nc(OC)nc(N2CCC(C(=O)NCc3ccco3)CC2)n1,inactive: > 76.9 µM
2,CCc1nnc(NC(=O)c2ccncc2)s1,inactive: > 76.9 µM
3,O=C(CC(NS(=O)(=O)c1ccc(Cl)cc1)c1ccco1)NC1CCCC1 (centres undefined),inactive: > 76.9 µM
4,O=C(Nc1ccccc1C(F)(F)F)N1CCC(n2c(=O)[nH]c3ccccc32)CC1,inactive: > 76.9 µM
5,COc1cccc2sc(N(C)c3ccccc3)nc12,inactive: > 76.9 µM
6,O=C(Nc1cccc(Cl)c1)N(Cc1nc2ccccc2c(=O)[nH]1)C1CCCC1,inactive: > 76.9 µM
7,COc1ccc(S(=O)(=O)NC(C)C(=O)Nc2cccc(C(C)=O)c2)cc1 (centres undefined),inactive: > 76.9 µM
8,CC(=O)c1cccc(NC(=O)c2cc(-n3cnnc3)ccc2Cl)c1,inactive: > 76.9 µM
9,CCNS(=O)(=O)c1c(C)cc(N2CCCC2=O)cc1C,inactive: > 76.9 µM
10,Cc1cc2cc(CN(C(=O)C3CC3)C3CCCC3)c3nnnn3c2cc1C,inactive: > 76.9 µM
11,Cc1cc(SCC(=O)NC(=O)NCc2ccco2)nc2c(C)cccc12,inactive: > 76.9 µM
12,c1ccc(-c2ccc(OCCOCCn3cncn3)cc2)cc1,inactive: > 76.9 µM
13,COc1ccc(-c2nn3c(-c4ccccc4)nnc3s2)cc1,inactive: > 76.9 µM
14,Cc1noc(C)c1C(=O)OCC(=O)NCCC1=CCCCC1,inactive: > 76.9 µM
15,O=C1c2ccccc2CN1CCNS(=O)(=O)c1ccc(Cl)cc1,inactive: > 76.9 µM
16,COC(=O)c1cc(OC)c(OC)cc1NC(=O)c1oc2ccccc2c1C,inactive: > 76.9 µM
17,COc1ccc(NC(C)=O)cc1NC(=O)CSc1nnc(-c2ccncc2)n1C,inactive: > 76.9 µM
18,CCCC(=O)N1CCN(c2ccc(NC(=O)c3cc4ccccc4o3)cc2Cl)CC1,active: 4.22 µM
19,c1ccc2c(c1)CCN(c1nc3cc4c(cc3s1)OCCO4)C2,inactive: > 76.9 µM
20,CCOc1ccccc1NC(=O)Nc1cc(OC)ccc1OC,inactive: > 76.9 µM
21,COc1ccc(S(=O)(=O)N(CC(N)=O)C2CCCCC2)cc1Cl,inactive: > 76.9 µM
22,COC(=O)n1ccc(C(=O)Nc2ccccc2F)n1,inactive: > 76.9 µM
